Laboratory results as given in the supplement of paper PMC12217912.
This is one part of the list. The full chains were built here from the parent and the listed change. Values near 0.05 are background.

B1: TEV protease; numbered along this chain (parent)
chain: MGESLFKGPRDYNPISSSICHLTNESDGHTTSLYGIGFGPFIITNKHLFRRNNGTLVVQSLHGVFKVKDTTTLQQHLVDGRDMIIIRMPKDFPPFPQKLKFREPQREERICLVTTNFQTKSMSSMVSDTSCTFPSGDGIFWKHWIQTKDGQCGSPLVSTRDGFIVGIHSASNFTNTNNYFTSVPKNFMELLTNQEAQQWVSGWRLNADSVLWGGHKVFMVKPEEPFQPVKEATQL

Variants of: B1
Assay: raw area under fraction-flipped curve 0-4 h after induction (AUC4h, not background-subtracted), DNA-recorder readout of cleavage of the substrate (dimensionless); higher = more cleavage of the substrate by the protease variant
Settings: temperature: 34 °C; time window: 0-4 h after rhamnose induction
Procedure: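 In vivo DNA recorder in E. coli TOP10(DE3) ΔrhaA at 34 °C. Each TEVp single-site mutant (parent TEVp 0) is paired with a single-site variant of the 7-mer TEVs (canonical ENLYFQ|S). The substrate sits between flexible linkers in a Bxb1-sfGFP-TEVs-SsrA fusion, so cleavage stabilises Bxb1 and speeds flipping of a recombination array, read by NGS. The value is the raw area under the fraction-flipped curve over 0-4 h after rhamnose induction (AUC4h), with ≥20 reads per time point. It is not background-subtracted; inactive controls average about 0.047.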
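Note: Bxb1 expression induced with 0.2% (w/v) L-rhamnose at OD600 near 0.5, cultures sampled hourly, flipped fraction per protease–substrate barcode pair counted by paired-end Illumina sequencing.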

Row | Variant | area with substrate DNLYFQS | area with substrate HNLYFQS | area with substrate KNLYFQS | area with substrate LNLYFQS | area with substrate MNLYFQS | area with substrate SNLYFQS | area with substrate TNLYFQS | area with substrate WNLYFQS | area with substrate FNLYFQS | area with substrate GNLYFQS | area with substrate INLYFQS | area with substrate NNLYFQS | area with substrate PNLYFQS | area with substrate RNLYFQS | area with substrate VNLYFQS | area with substrate YNLYFQS | area with substrate QNLYFQS | area with substrate CNLYFQS
1 | T31H | 0.082 | 0.0782 | 0.0632 | 0.0642 | 0.0628 | 0.0497 | 0.0585 | 0.0661 | – | – | – | – | – | – | – | – | – | –
2 | G54D | 0.0593 | 0.0634 | 0.0449 | 0.0644 | 0.0689 | 0.064 | 0.0659 | – | 0.0601 | 0.0637 | 0.0504 | 0.0665 | 0.0622 | 0.0663 | 0.054 | 0.0373 | – | –
3 | K68M | 0.0717 | 0.0737 | 0.0471 | – | – | 0.0664 | 0.0643 | 0.0584 | 0.058 | 0.0559 | – | 0.0597 | 0.0736 | – | – | 0.0706 | – | –
4 | K68N | 0.0182 | 0.0653 | – | 0.0613 | – | 0.0037 | – | 0.0593 | 0.0512 | – | 0.0617 | – | 0.0689 | – | – | 0.0586 | 0.0983 | –
5 | I42T | 0.052 | 0.0474 | 0.0552 | 0.0504 | – | – | 0.0569 | 0.0614 | – | 0.0452 | 0.0536 | 0.048 | – | 0.0476 | – | 0.0576 | – | –
6 | I42P | 0.0472 | 0.0436 | 0.0693 | 0.0501 | 0.0337 | 0.0386 | 0.0453 | 0.0361 | – | – | 0.0473 | – | 0.054 | 0.0447 | 0.02 | 0.044 | 0.0368 | –
7 | I42M | 0.0844 | 0.0632 | – | 0.0605 | 0.0799 | 0.0752 | – | 0.0395 | 0.0671 | 0.0694 | 0.0634 | 0.0777 | – | 0.0604 | 0.0786 | 0.0674 | 0.0716 | –
8 | I42E | 0.0495 | 0.0422 | 0.0416 | 0.0491 | 0.0484 | – | 0.0186 | 0.047 | 0.0268 | 0.0453 | 0.017 | 0.0354 | 0.0391 | – | 0.0385 | 0.0364 | – | –
9 | I43M | 0.0648 | 0.0681 | – | 0.0596 | 0.0531 | 0.07 | 0.0463 | 0.0591 | 0.0623 | – | – | 0.0871 | 0.0618 | – | 0.0658 | 0.0706 | – | –
10 | T30A | 0.0953 | 0.0591 | 0.073 | 0.0651 | 0.0788 | 0.0505 | 0.0608 | 0.0617 | – | 0.0582 | – | 0.0734 | 0.0697 | 0.0744 | – | 0.063 | – | –
11 | V67Q | 0.0635 | 0.0504 | 0.065 | 0.0505 | – | – | 0.0597 | 0.0663 | 0.0627 | – | 0.0496 | – | 0.0544 | – | – | – | – | –
12 | S17Y | 0.0781 | 0.0611 | 0.0651 | 0.0902 | 0.0668 | 0.0678 | 0.06 | 0.0584 | 0.0661 | 0.0693 | 0.0502 | 0.0598 | 0.0708 | 0.0834 | 0.0646 | 0.0632 | 0.0591 | –
13 | P228D | – | 0.0723 | – | 0.0813 | 0.0577 | 0.084 | 0.0204 | – | – | – | 0.084 | – | 0.0978 | – | – | – | 0.0803 | 0.0623
14 | Q234D | – | 0.0638 | 0.0577 | 0.0523 | 0.048 | 0.0782 | 0.0473 | 0.0525 | – | – | – | 0.0555 | 0.0686 | – | 0.0792 | 0.0675 | – | 0.066
